The results in this text go back to article PMC12136788.

First the molecules themselves.
T1: UNK ZnF1-3 (human, UniProt Q9C0B0 31-174)
T1 sequence: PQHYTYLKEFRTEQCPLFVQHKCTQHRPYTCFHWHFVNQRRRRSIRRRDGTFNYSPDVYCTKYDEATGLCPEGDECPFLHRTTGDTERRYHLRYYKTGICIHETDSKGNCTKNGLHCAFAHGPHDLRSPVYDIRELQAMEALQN

B1: chr11:70266916:70266917:+_ENSMUSG00000018923_ENSMUST00000019067|mus_hu|FALSE|FALSE (ssRNA)
RNA: GGGAGUUCUACAGUCCGACGAUCGUAUGUCAGUUUCCAUCUCCUCUCUGAGCCUGUCAGGGUGUUUCUGGAGUGCAGAGCAGGAGCACCCUGCUGGAGAGGCCAAAGCAUAGCUGUGGGCAGGCUCGGGCUUCAGUUUUUCCACAACAGAGGAUUGAGCAUCA
B2: chr10:33190432:33190433:-_ENSG00000150093_ENST00000302278|hu_mus|hu_hu_hu_mus_True|18_28 (ssRNA)
RNA: GGGAGUUCUACAGUCCGACGAUCUACAUUUUCCAAACCUGCAUGUGAAUAAAACCCUGGCCACAGAGCCCCAAAACUACCCUACUGUGACUAAGAUGCUGCUGCUGUUGCAUUCAGUGUUGUGGGACCGCCUGAGUAGGAUUCCAACAGAGGAUUGAGCAUCA
B3: chr2:168009442:168009443:-_ENSMUSG00000051149_ENSMUST00000088001|mus_mus|FALSE|FALSE (ssRNA)
RNA: GGGAGUUCUACAGUCCGACGAUCGCGAUUACAGUAGAGGCAUUUGCUAGUAAAAUUGUGUAUUUUCAUAAUGUAGUUAGCUACGGCUGGGACUUUCUCAGCUUUAUGCUCCUUUUCGAAGUGAACGCUAUAGACAUUCUCAGGCAACAGAGGAUUGAGCAUCA
B4: chr4:76721835:76721836:+_ENSG00000138768_ENST00000264904|hu_mus|hu_hu_hu_mus_True|8_108 (ssRNA)
RNA: GGGAGUUCUACAGUCCGACGAUCGUUGGCUGGGGUUUUCUGAGACGCUCUGGAAUAUAACUCAUGUUUGCUAAUAAAUCCUAGUUUCUCUAUGAAAUUCUCUUUGCCAAUCCUCUUCUCUAUUAGUGUUUUAGCUUUCUCUUUCAACAGAGGAUUGAGCAUCA
B5: chr5:68661279:68661280:-_ENSG00000085231_ENST00000217893|hu_mus|motif|central (ssRNA)
RNA: GGGAGUUCUACAGUCCGACGAUCACCUGAAUAUGGCUUGAUCAGUGGCAAAGGGGUUUGAUUUCUUUGUCGUGCAAUAUCGGAUAAGAAAUCUCUCGGGGGUGGAGAAGUGAAAGACUGGUCAGCACGGCACUGGAUUGCCAGCAACAGAGGAUUGAGCAUCA
B6: chr8:42417948:42417949:+_ENSMUSG00000031592_ENSMUST00000045218|mus_mus|motif|central (ssRNA)
RNA: GGGAGUUCUACAGUCCGACGAUCUUCUAGUUACUAACAAUGUCUGAACUGUGUAUACAGUCUGAGUUAUUAACAUGUUCGGAGACCACUGAGAUUCAUCUGCUUUAUUCGCACACAAGAGCAGGAACUACAAGAACAUCAGACCAACAGAGGAUUGAGCAUCA
B7: chr17:60770872:60770873:+_ENSG00000011028_ENST00000303375|hu_hu|hu_hu_hu_mus_True|48_108 (ssRNA)
RNA: GGGAGUUCUACAGUCCGACGAUCUCUCUUUUCUUUUAAAAAAAAAGACAAACAAUAAUAGCACAUUUCGAGAAUCAAGAACUACAAAGAAAGGGCCGCUUUGAGUUUUUGUUCACAUCGUCCUGCACUGGGACACGGGGACUGCAACAGAGGAUUGAGCAUCA
B8: chr1:60041781:60041782:+_ENSMUSG00000041040_ENSMUST00000036540|mus_hu|mus_mus_mus_hu_False|48_58 (ssRNA)
RNA: GGGAGUUCUACAGUCCGACGAUCAAGUUUACAAUAGUAAAGUAAAUGCAGUAGUGGCAAAUUUUCUUUUAUUUUCCUUCCUAAAAGAAAACCUCAGUAACCCAGUCCUAGUCUUGGACAUAGUGAAAGCUAUAAAUUCUGACUCAACAGAGGAUUGAGCAUCA
B9: chr12:79975562:79975563:+_ENSMUSG00000021116_ENSMUST00000071230|mus_mus|motif|central (ssRNA)
RNA: GGGAGUUCUACAGUCCGACGAUCGAAUUUGUCCUCACAUUUGAUUGCUUCCUCUGGAGAAACUCUUCUUUUUGACAAAUCGGUAUAUCCUUUUUCUUUAUCCACUCUAAUGACAACAACACAUUCAUUUCUGCCAAUUCGGAUCAACAGAGGAUUGAGCAUCA
B10: chr1:163117127:163117128:-_ENSG00000143248_ENST00000313961|hu_mus|hu_hu_hu_mus_False|38_108 (ssRNA)
RNA: GGGAGUUCUACAGUCCGACGAUCUGCGGGUUAUUAUGUAACUCAACUCACAGGGCAACUUUUGGAAGCCUGACCAGAUGACUACUUGAUUAGCUCCUGAUAAAACUCAGAGCGCACAAAGCGGGGCAGAGAAUCCUUCUCCAUCAACAGAGGAUUGAGCAUCA
B11: chr4:57860909:57860910:+_ENSG00000047315_ENST00000314595|hu_mus|motif|central (ssRNA)
RNA: GGGAGUUCUACAGUCCGACGAUCAUCUGUUAAGCCAUUUAACAGGCAGUAGGUGGAGCGCAGCAUAAUUGGAAUUUUCCCGGUGAACGUUUUCUGGUGCUGAGUCUGCAGCUGUUCUUCACCUUCUUUAAUGACUGUCUUUGUCAACAGAGGAUUGAGCAUCA
B12: chr18:33747085:33747086:+_ENSG00000134759_ENST00000351393|hu_hu|motif|central (ssRNA)
RNA: GGGAGUUCUACAGUCCGACGAUCAGACCAAAUAAUUCUACUGUGCACAGAAGUAAUUUUGUUGGUGAAGGCAAAAAGACGGAAAACUGGCUCGAACUCAGGUGAGAUUGUAUCCUGCUUUUUCCACAAUGACCAGGUUCGAUCCAACAGAGGAUUGAGCAUCA
B13: chr16:94690093:94690094:+_ENSMUSG00000040785_ENSMUST00000117648|mus_hu|mus_mus_mus_hu_True|48_98 (ssRNA)
RNA: GGGAGUUCUACAGUCCGACGAUCGGGCUGGGAUGACAGCAGACAGCCCUCGAUUCCAGGGGGAAAAAGUCUUAGUCGAUACUAAUUUAAAAAGUAUAAUGAUUUUUGAAAAUCAGAUUACAUCUAUAAAAGAUGAAAAGCAAACAACAGAGGAUUGAGCAUCA
B14: chr5:145543945:145543946:-_ENSG00000133706_ENST00000545646|hu_hu|hu_hu_hu_mus_True|58_68 (ssRNA)
RNA: GGGAGUUCUACAGUCCGACGAUCCUGAACGGCCAGUGGUGGGAAAUAAUCAAGCCAGUGCUCUGCUUCAGAAAAUUUUACUAUCUCGUCAUCAGAGAGCCCAAGGGAUUUCAUAAUGUCCCACUGGUACUUAGAAGAUCCUGCCAACAGAGGAUUGAGCAUCA
B15: 104573229_104573349_1377_3pUTR_ENSG00000166272_ENST00000448841|human|control|control (ssRNA)
RNA: GGGAGUUCUACAGUCCGACGAUCGAGAUGGAGUUAGGGUAUGAGGAAUGAGUCACAGAACCAACUUAGCCCUCCACAACACUGUGCCCUUGUGGAGGAAGAGGCAUCCACACCCCGAACUGUACCUGGAGAUGGAGGAAAAUGCAACAGAGGAUUGAGCAUCA
B16: 94799348_94799709_406_CDS_ENSMUSG00000001506_ENSMUST00000001547|mouse|control|control (ssRNA)
RNA: GGGAGUUCUACAGUCCGACGAUCAGGGUCUCCCUUGGGUCCCUCGACUCCUACAUCUUCUGAGUUUGGUGAUACGUAUUCUUCCGGGCAGAAAGCACAGCACUCGCCCUCCCGUCUUUGGGGGUUGGGACAGUCCAGUUCUUCCAACAGAGGAUUGAGCAUCA
B17: chr7:141450121:141450122:+_ENSG00000106028_ENST00000265304|hu_mus|hu_hu_hu_mus_True|1_108 (ssRNA)
RNA: GGGAGUUCUACAGUCCGACGAUCUCAUCCUUUCUACGCCUUUUCUUUUGUCUGGUCACUCAGAAAUAUAAUGUUAUCAGCUAUGAUUGUUGUUGCUUGCCGCCUCACAUUGUUUUUAUCCAUGUACUCGCCAUAGUCUAUUUUCAACAGAGGAUUGAGCAUCA
B18: chr15:96202663:96202664:+_ENSMUSG00000033237_ENSMUST00000096250|mus_hu|FALSE|FALSE (ssRNA)
RNA: GGGAGUUCUACAGUCCGACGAUCUAUACUGCUCACAGAUGAACCACCCAAAGUUAAUACAGGUCCAUUAGAAAUUCUUUCUAGUUGAUCACCUUUGGCAGUAUCUUGCUGAGUGAUAUCUAAAGUCCCUUGUGGUUCCAUUGGCAACAGAGGAUUGAGCAUCA
B19: chr14:57341393:57341394:-_ENSMUSG00000021938_ENSMUST00000022507|mus_mus|motif|central (ssRNA)
RNA: GGGAGUUCUACAGUCCGACGAUCUAUGAAUAGUGAGACUCUAUAUGAAAUGUAAGCAACAACUCUAACUUACACAGGAUCGGUGGUUUAUACAAUCUUAACCCCCAUGCCUCCCACCCACUAGUAUACUACAGUAUGUGUCCCCAACAGAGGAUUGAGCAUCA
B20: chr8:25296883:25296884:-_ENSG00000104756_ENST00000221200|hu_hu|motif|central (ssRNA)
RNA: GGGAGUUCUACAGUCCGACGAUCGUAGUUCAAAAUGGGUUCGAAGUACUCAGGACUUCGGUCAAUUAAGAAAGCUCCUCGGUGAUCUUGCUUAUUUCCCCAGACACCUUUGUCCUUAAACAUGUGGGCCAGCAUACUGUCAGGCAACAGAGGAUUGAGCAUCA
B21: 117006022_117006142_4083_3pUTR_ENSMUSG00000027351_ENSMUST00000028829|mouse|control|control (ssRNA)
RNA: GGGAGUUCUACAGUCCGACGAUCGGAUUAAACUGUCCAUCUAAUUCACAAAGAGACUCAUUAACAUUAUAUCAUCAGUUUCUUUUCUGGACUGGCUUGAAUUCAUGUGUGCUAAUUACAAAAAUCCAAGGUUAAAAAAAAAACCAACAGAGGAUUGAGCAUCA
B22: chr9:95013113:95013114:-_ENSG00000196305_ENST00000443024|hu_hu|hu_hu_hu_mus_False|18_98 (ssRNA)
RNA: GGGAGUUCUACAGUCCGACGAUCCUCAGUCAGAAAGGGUGUGUAGGGGGCCAUCAGUCUGCACAGAGAAAGCAGGACACUGAACAGUGUCUCCAGAGCCAUGACACAGUCUUCCACCCCAUUUUCACCCUUUAACCUCCUCCUCAACAGAGGAUUGAGCAUCA

Some of the results follow.

In the assay the target is T1, UNK ZnF1-3. As to the kind of experiment: nsRBNS (natural sequence RNA bind-n-seq); RBNS binding buffer (assumed for nsRBNS): 25 mM Tris pH 7.5, 150 mM KCl, 3 mM MgCl2, 0.01% Triton X-100, 500 ug/ml BSA, 20 U/ml SUPERase-In, 4 C; UNK is unkempt and MSI1 is Musashi-1; names of the RNAs are library labels; protein concentration not given here; high values mean tight binding.
In the case of B1, the binding signal was 0.718 enrichment R. Molecule B2 yielded a binding signal of 1.21 enrichment R. B3: the binding signal came to 1.09 enrichment R.

Turning to B4, the binding signal came to 0.667 enrichment R. The value for B5 was 1.14 enrichment R. The value for B6 was 1.39 enrichment R.

With B7, the binding signal was found to be 1.23 enrichment R. B8 registered a binding signal of 0.864 enrichment R. In turn, B9 gave a binding signal of 0.69 enrichment R. Take B10: the binding signal turned out to be 0.831 enrichment R. Molecule B11 displayed a binding signal of 0.599 enrichment R. Take B12: the binding signal was 1.45 enrichment R. In the case of B13 it was 1.47 enrichment R. Turning to B14, the binding signal amounted to 1.16 enrichment R. In the case of B15 it was 2.15 enrichment R. For B16, the binding signal was 0.893 enrichment R.

Molecule B17 gave a binding signal of 0.4 enrichment R. In the case of B18 it was 0.372 enrichment R; in that of B19, 1.11 enrichment R; in that of B20, 1.1 enrichment R. In the case of B21, the binding signal was 1.08 enrichment R. In the case of B22 it was 1.1 enrichment R.
